Data taken from patent publication US20240287457A1, “COMPOSITIONS AND CELL CULTURE MEDIA FOR INCREASING NEUTROPHIL LIFESPAN” (THE CHILDREN'S MEDICAL CENTER CORPORATION, priority 2021, published 2024).
Where a SMILES comes first, the peptide text is derived from it. The star is where a group is joined. Cbz = O=C(OCc1ccccc1)*; CH2F = FC*

Key:
[1] = test system: human neutrophils; experiment: In vitro neutrophil death / survival of cultured human neutrophils
[2] = test system: murine neutrophils; experiment: In vitro neutrophil death / survival of cultured murine neutrophils; type: cell-based, mouse

## Hsp70: Heat Shock Protein 70, LMP inhibitor; recombinant human or mouse Hsp70 protein
[1]; 10 pM
  Neutrophil survival after 3 days - normalized to fresh neutrophils (100): <25
[1]; 100 pM
  Neutrophil survival after 3 days - normalized to fresh neutrophils (100): <25
[1]; 1 nM
  Neutrophil survival after 3 days - normalized to fresh neutrophils (100): <25
[1]; 10 nM
  Neutrophil survival after 3 days - normalized to fresh neutrophils (100): <25
[1]; 100 nM
  Neutrophil survival after 3 days - normalized to fresh neutrophils (100): <25
[1]; 200 nM
  Neutrophil survival after 3 days - normalized to fresh neutrophils (100): <25
[2]; 10 pM
  Neutrophil survival after 3 days - normalized to fresh neutrophils (100): <10
[2]; 100 pM
  Neutrophil survival after 3 days - normalized to fresh neutrophils (100): <10
[2]; 1 nM
  Neutrophil survival after 3 days - normalized to fresh neutrophils (100): <10
[2]; 10 nM
  Neutrophil survival after 3 days - normalized to fresh neutrophils (100): <10
[2]; 100 nM
  Neutrophil survival after 3 days - normalized to fresh neutrophils (100): <10
[2]; 200 nM
  Neutrophil survival after 3 days - normalized to fresh neutrophils (100): <10

## COc1cc(O)c2c(c1)oc(=O)c1c3cc(O)c(O)cc3oc21 [Wedelolactone]
[1]; 25 μM
  Neutrophil survival after 3 days - normalized to fresh neutrophils (100): <25

## CS(=O)(=O)O.CS(=O)(=O)O.O=S1(=O)CCN(Cc2cc(NCC3CCOCC3)c3[nH]c(-c4ccccc4)cc3c2)CC1 [NECROX-5]
[1]; 10 nM
  Neutrophil survival after 3 days - normalized to fresh neutrophils (100): <25
[1]; 100 nM
  Neutrophil survival after 3 days - normalized to fresh neutrophils (100): <25
[1]; 1 μM
  Neutrophil survival after 3 days - normalized to fresh neutrophils (100): <25
[1]; 10 μM
  Neutrophil survival after 3 days - normalized to fresh neutrophils (100): <25
[1]; 100 μM
  Neutrophil survival after 3 days - normalized to fresh neutrophils (100): <25
[2]; 10 nM
  Neutrophil survival after 3 days - normalized to fresh neutrophils (100): <10
[2]; 100 nM
  Neutrophil survival after 3 days - normalized to fresh neutrophils (100): <10
[2]; 1 μM
  Neutrophil survival after 3 days - normalized to fresh neutrophils (100): <10
[2]; 10 μM
  Neutrophil survival after 3 days - normalized to fresh neutrophils (100): <10
[2]; 100 μM
  Neutrophil survival after 3 days - normalized to fresh neutrophils (100): <10

## CS(=O)(=O)N1CCC(Nc2cc(CN3CCS(=O)(=O)CC3)cc3cc(-c4ccccc4)[nH]c23)CC1 [NECROX-2]
[1]; 10 nM
  Neutrophil survival after 3 days - normalized to fresh neutrophils (100): <25
[1]; 100 nM
  Neutrophil survival after 3 days - normalized to fresh neutrophils (100): <25
[1]; 1 μM
  Neutrophil survival after 3 days - normalized to fresh neutrophils (100): <25
[1]; 10 μM
  Neutrophil survival after 3 days - normalized to fresh neutrophils (100): <25
[1]; 100 μM
  Neutrophil survival after 3 days - normalized to fresh neutrophils (100): <25
[2]; 10 nM
  Neutrophil survival after 3 days - normalized to fresh neutrophils (100): <10
[2]; 100 nM
  Neutrophil survival after 3 days - normalized to fresh neutrophils (100): <10
[2]; 1 μM
  Neutrophil survival after 3 days - normalized to fresh neutrophils (100): <10
[2]; 10 μM
  Neutrophil survival after 3 days - normalized to fresh neutrophils (100): <10
[2]; 100 μM
  Neutrophil survival after 3 days - normalized to fresh neutrophils (100): <10

## COC(=O)C[C@H](NC(=O)[C@H](C)NC(=O)[C@@H](NC(=O)[C@H](CC(=O)OC)NC(=O)[C@@H](NC(=O)OCc1ccccc1)C(C)C)C(C)C)C(=O)CF [Z-VDVAD-FMK] (Cbz-VD(OMe)VAD(OMe)-CH2F)
[1]; 25 μM
  Neutrophil survival after 3 days - normalized to fresh neutrophils (100): <25

## COC(=O)CC[C@H](NC(=O)[C@H](Cc1c[nH]c2ccccc12)NC(=O)OCc1ccccc1)C(=O)N[C@@H](Cc1cnc[nH]1)C(=O)N[C@@H](CC(=O)OC)C(=O)CF [Z-WEHD-FMK] (Cbz-WE(OMe)HD(OMe)-CH2F)
[1]; 25 μM
  Neutrophil survival after 3 days - normalized to fresh neutrophils (100): <25

## CC(=O)N[C@@H](CC(=O)O)C(=O)N[C@@H](CCC(=O)O)C(=O)N[C@H](C(=O)N[C@H](C=O)CC(=O)O)C(C)C [Ac-DEVD-CHO, (4S,7S,10S,13S)-7-(2-carboxyethyl)-4-(carboxymethyl)-13-formyl-10-isopropyl-2,5,8,11-tetraoxo-3,6,9,12-tetraazapentadecan-15-oic acid]
[1]; 100 nM
  Neutrophil survival after 3 days - normalized to fresh neutrophils (100): <25
[1]; 1 μM
  Neutrophil survival after 3 days - normalized to fresh neutrophils (100): <25
[1]; 10 μM
  Neutrophil survival after 3 days - normalized to fresh neutrophils (100): <25
[1]; 25 μM
  Neutrophil survival after 3 days - normalized to fresh neutrophils (100): <25
[1]; 100 μM
  Neutrophil survival after 3 days - normalized to fresh neutrophils (100): <25
[1]; 200 μM
  Neutrophil survival after 3 days - normalized to fresh neutrophils (100): <25
[2]; 100 nM
  Neutrophil survival after 3 days - normalized to fresh neutrophils (100): <10
[2]; 1 μM
  Neutrophil survival after 3 days - normalized to fresh neutrophils (100): <10
[2]; 10 μM
  Neutrophil survival after 3 days - normalized to fresh neutrophils (100): <10
[2]; 100 μM
  Neutrophil survival after 3 days - normalized to fresh neutrophils (100): <10
[2]; 200 μM
  Neutrophil survival after 3 days - normalized to fresh neutrophils (100): <10

## COC(=O)C[C@H](NC(=O)[C@H](CCSC)NC(=O)[C@H](CCC(N)=O)NC(=O)[C@H](CC(=O)OC)NC(=O)OCc1ccccc1)C(=O)CF [Z-DQMD-FMK] (Cbz-D(OMe)QMD(OMe)-CH2F)
[1]; 25 μM
  Neutrophil survival after 3 days - normalized to fresh neutrophils (100): <25

## CC(=O)N[C@@H](CS)C(=O)O [N-acetyl cysteine]
[1]; 3.125 mM
  Neutrophil survival after 3 days - normalized to fresh neutrophils (100): <25
[1]; 6.25 mM
  Neutrophil survival after 3 days - normalized to fresh neutrophils (100): <25
[1]; 25 mM
  Neutrophil survival after 3 days - normalized to fresh neutrophils (100): <25
[1]; 50 mM
  Neutrophil survival after 3 days - normalized to fresh neutrophils (100): <25
[2]; 3.125 mM
  Neutrophil survival after 3 days - normalized to fresh neutrophils (100): <10
[2]; 6.25 mM
  Neutrophil survival after 3 days - normalized to fresh neutrophils (100): <10
[2]; 25 mM
  Neutrophil survival after 3 days - normalized to fresh neutrophils (100): <10
[2]; 50 mM
  Neutrophil survival after 3 days - normalized to fresh neutrophils (100): <10

## COC(=O)CC(NC(=O)OC(C)(C)C)C(=O)CF [Boc-D-FMK]
[1]; 25 μM
  Neutrophil survival after 3 days - normalized to fresh neutrophils (100): <25

## CC(C)C(NC(=O)c1ccc2ccccc2n1)C(=O)NC(CC(=O)O)C(=O)COc1c(F)cccc1F (stereo not drawn) [Q-VD-Oph, Quinoline-Val-Asp-Difluorophenoxymethylketone]
[1]; 12.5 μM
  Neutrophil survival after 3 days - normalized to fresh neutrophils (100): 65 ± 9.6
[1]; 25 μM
  Neutrophil survival after 3 days - normalized to fresh neutrophils (100): 60 ± 0.8
[1]; 50 μM
  Neutrophil survival after 3 days - normalized to fresh neutrophils (100): 65 ± 3.9
[1]; 100 μM
  Neutrophil survival after 3 days - normalized to fresh neutrophils (100): 62 ± 4.9
[1]; 200 μM
  Neutrophil survival after 3 days - normalized to fresh neutrophils (100): 47 ± 8.3
[2]; 12.5 μM
  Neutrophil survival after 3 days - normalized to fresh neutrophils (100): 49 ± 4.4
[2]; 25 μM
  Neutrophil survival after 3 days - normalized to fresh neutrophils (100): 51 ± 2.5
[2]; 50 μM
  Neutrophil survival after 3 days - normalized to fresh neutrophils (100): 52 ± 0.2
[2]; 100 μM
  Neutrophil survival after 3 days - normalized to fresh neutrophils (100): 46 ± 2.4
[2]; 200 μM
  Neutrophil survival after 3 days - normalized to fresh neutrophils (100): 50 ± 3.6

## CCO[C@@H]1OC(=O)C[C@@H]1NC(=O)[C@@H]1CCCN1C(=O)[C@@H](NC(=O)c1ccc(N)c(Cl)c1)C(C)(C)C [Belnacasan (VX-765)]
[1]; 12.5 μM
  Neutrophil survival after 3 days - normalized to fresh neutrophils (100): <25
[1]; 25 μM
  Neutrophil survival after 3 days - normalized to fresh neutrophils (100): <25
[1]; 50 μM
  Neutrophil survival after 3 days - normalized to fresh neutrophils (100): <25
[1]; 100 μM
  Neutrophil survival after 3 days - normalized to fresh neutrophils (100): <25
[1]; 200 μM
  Neutrophil survival after 3 days - normalized to fresh neutrophils (100): <25
[2]; 12.5 μM
  Neutrophil survival after 3 days - normalized to fresh neutrophils (100): <10
[2]; 25 μM
  Neutrophil survival after 3 days - normalized to fresh neutrophils (100): <10
[2]; 50 μM
  Neutrophil survival after 3 days - normalized to fresh neutrophils (100): <10
[2]; 100 μM
  Neutrophil survival after 3 days - normalized to fresh neutrophils (100): <10
[2]; 200 μM
  Neutrophil survival after 3 days - normalized to fresh neutrophils (100): <10

## CC(=O)OCCN1C(=O)c2c(C)nc3ccc(S(=O)(=O)N4CCOCC4)cc3c2C1=O [Ivachtin]
[1]; 25 μM
  Neutrophil survival after 3 days - normalized to fresh neutrophils (100): <25

## CC(=O)N(O)CCCCCNC(=O)CCC(=O)N(O)CCCCCNC(=O)CCC(=O)N(O)CCCCCN.CS(=O)(=O)O [DFO, deferoxamine mesylate]
[1]; 1 μM
  Neutrophil survival after 3 days - normalized to fresh neutrophils (100): <25
[1]; 10 μM
  Neutrophil survival after 3 days - normalized to fresh neutrophils (100): <25
[1]; 100 μM
  Neutrophil survival after 3 days - normalized to fresh neutrophils (100): <25
[1]; 1 mM
  Neutrophil survival after 3 days - normalized to fresh neutrophils (100): <25
[1]; 10 mM
  Neutrophil survival after 3 days - normalized to fresh neutrophils (100): <25
[2]; 1 μM
  Neutrophil survival after 3 days - normalized to fresh neutrophils (100): <10
[2]; 10 μM
  Neutrophil survival after 3 days - normalized to fresh neutrophils (100): <10
[2]; 100 μM
  Neutrophil survival after 3 days - normalized to fresh neutrophils (100): <10
[2]; 1 mM
  Neutrophil survival after 3 days - normalized to fresh neutrophils (100): <10
[2]; 10 mM
  Neutrophil survival after 3 days - normalized to fresh neutrophils (100): <10
